# Experimental data reported in PMC4242493.
# The list shows a part of the results. The list includes weakly bound sequences.
# Target: MaxL homodimer (UniProt P61244)
# Assay: universal protein-binding microarray (PBM)
# Conditions: PBS-based mixture, 10 nM His-tagged protein dimer, 2% milk, 200 ng/uL BSA, 50 ng/uL salmon testes DNA, 0.02% TX-100; detection with Alexa 488 anti-His …; high values mean tight binding; most listed sequences are background and not binding sites; double strand, one strand shown
# Sequence of UniProt P61244 (P61244 whole entry): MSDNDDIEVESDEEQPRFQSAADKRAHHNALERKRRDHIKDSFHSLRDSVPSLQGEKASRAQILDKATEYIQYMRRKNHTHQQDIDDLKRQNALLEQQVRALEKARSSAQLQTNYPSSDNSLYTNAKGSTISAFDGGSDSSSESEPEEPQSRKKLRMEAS
row,Sequence,binding signal (normalized occupancy)
1,CAAAAAAA,0.0719
2,ACAAGCGG,0.0698
3,AACCTACA,0.0778
4,ATAAGAGC,0.0718
5,CCACGCGC,0.157
6,AACGAGAA,0.0745
7,AACCCACG,0.0944
8,TGAACACA,0.0761
9,AGGAGTCC,0.0714
10,GCCAGACC,0.0697
11,AGACGGTA,0.0685
12,GCATCAAA,0.0774
13,AAACACGT,0.106
14,ATACTAAC,0.0807
15,AAATTGCT,0.0723
16,GAAGAGGC,0.0738
17,CTGAGGAC,0.0703
18,CTTCCAGA,0.0713
19,TGATCTAA,0.0794
20,AAGGCCTC,0.0711
21,ACAGTTGG,0.0661
22,AATATATA,0.0875
23,GTTCATCA,0.0772
24,CGTCGGGC,0.0634
25,CCAGTGAC,0.0714

row,Sequence,binding signal (normalized occupancy)
1,TGAGAGAA,0.0879
2,CGACATTC,0.0758
3,CGTCCTCC,0.0755
4,ACATTCTA,0.0802
5,AGGACGTA,0.0761
6,CTTAAATA,0.0752
7,GGGATGGA,0.0821
8,TCAAATAA,0.0786
9,GTCAAGAA,0.0742
10,GCGACAAA,0.0733
11,CGTGTCGA,0.0757
12,ACAGCCAG,0.0734
13,ATTAAACG,0.0777
14,AGAGTCGG,0.068
15,GACGAGAC,0.0761
16,CAAGGAAG,0.074
17,ACCACTCA,0.0788
18,GCTTGCTA,0.0702
19,TAAGGGGA,0.0736
20,CCGTTTGA,0.0729
21,AAGGTGCC,0.0753
22,CTTGCCAA,0.0716
23,CGCGAGAA,0.0735
24,AAGCTCCG,0.0661
25,AATTCAGC,0.0753

row,Sequence,binding signal (normalized occupancy)
1,AATCACGG,0.0727
2,GAGATATC,0.0698
3,AGGTGCTC,0.0817
4,AATACCGA,0.0704
5,AAAACTCG,0.069
6,CTAGGGAA,0.0709
7,ACGAGCAC,0.0839
8,AGAGGCCT,0.0686
9,CTGTTAAC,0.0785
10,AACTAGAC,0.0708
11,AACACCGC,0.0718
12,GAGGCCAC,0.0789
13,AGGGGGAT,0.0827
14,CCAGGGAG,0.068
15,CGTACACG,0.0971
16,AGCGTGAC,0.101
17,TGCTACAA,0.0792
18,GAAGCTTC,0.0666
19,AACAAGTT,0.0695
20,GTTAGTTA,0.0776
21,CATAGAAG,0.0744
22,AAAGACCG,0.0683
23,CTACCCTA,0.0765
24,CAATGATG,0.0851
25,ACTTCCCT,0.0738

row,Sequence,binding signal (normalized occupancy)
1,CAGGAACG,0.0705
2,CATCAGGA,0.0778
3,AACTCAAG,0.0679
4,ACCAGCAT,0.0829
5,GGGTCGAC,0.0706
6,CACGGCTC,0.0728
7,CTTATAGA,0.0769
8,ATATCCAT,0.088
9,AGGCCCCT,0.0749
10,ACACTGCG,0.077
11,CTGGGAAC,0.0716
12,GGTCATAA,0.073
13,GCGTGACC,0.103
14,ATACATCA,0.087
15,AAACGCTG,0.0733
16,ATCTAACG,0.0779
17,CCCAGCAG,0.0737
18,ACACCTGC,0.0956
19,CGACCCTA,0.0751
20,AATCATGT,0.0985
21,AGCTATAC,0.0735
22,ATACGTTG,0.0823
23,ACTTTTGC,0.0698
24,ATGACAAT,0.0768
25,CAACCAGC,0.0699

row,Sequence,binding signal (normalized occupancy)
1,CACCAAAA,0.0711
2,GGTCACGA,0.0843
3,CTGGTGGA,0.0808
4,TCCCCAGA,0.0738
5,ATTAGATA,0.0818
6,CTAATCCA,0.0814
7,ACTAGGCG,0.0726
8,CACGGGAA,0.0786
9,CGCTGTGA,0.0742
10,AACTCTGT,0.0717
11,CTGCATCC,0.0733
12,CCTCAGAG,0.0685
13,GCGGTTCA,0.0753
14,CGGTCGAC,0.0709
15,AAAGAAAA,0.0698
16,CCCTGTGC,0.077
17,CGATTTTA,0.0735
18,CTCTTGTA,0.0733
19,CCGTGTAC,0.0796
20,TGCCCTAA,0.0763
21,CGCTAGCC,0.0702
22,CGCACACC,0.0877
23,CGCTGCTC,0.0761
24,AACCATCG,0.0792
25,ACCGTCAT,0.0743

row,Sequence,binding signal (normalized occupancy)
1,GAATAGTC,0.0788
2,AAGACGAC,0.0749
3,GATAGAAA,0.0779
4,GAGGCGGC,0.0663
5,TGGACACA,0.0851
6,AAGTTTCA,0.0733
7,AGATTTAG,0.0713
8,AAAAGTGT,0.073
9,CGGTGTGC,0.0792
10,AATTTCAT,0.0775
11,TCCTTGCA,0.0754
12,ATTACACA,0.081
13,CCAATGCG,0.0793
14,CTATCCAC,0.0838
15,CGAGAGTA,0.0713
16,GGGATAGA,0.0815
17,CCACTCAC,0.0831
18,GAGCATGA,0.0963
19,GATTCCCC,0.0787
20,AGGTGCTG,0.0737
21,GCCAGAGC,0.0663
22,CCGCGATA,0.0783
23,CTGAACCA,0.0757
24,CCGCCCAA,0.0759
25,TATTCAGA,0.0792

row,Sequence,binding signal (normalized occupancy)
1,CTATAGCC,0.0725
2,CAAACATC,0.0763
3,CAGAATCA,0.0789
4,ATGATAAT,0.0871
5,CCTACAAC,0.0784
6,TTAACGAA,0.0717
7,GCGTAGAA,0.0721
8,CAGGTCCG,0.0733
9,ACTGGTCG,0.0715
10,ACATGTTG,0.11
11,GCCCAGCA,0.0696
12,GCGGAGAC,0.0696
13,CGTATTGC,0.0742
14,ATTCTGGC,0.0753
15,AAGTCGCG,0.0742
16,GAAAAGAA,0.0746
17,AGAAATGG,0.077
18,ATGGCATC,0.0919
19,GCCGCGAA,0.0697
20,GCTCAAGC,0.0636
21,CACACTAG,0.0763
22,AACTCTAT,0.0766
23,GAACGTTA,0.074
24,GTTGTATA,0.0804
25,ATACCTCG,0.0787

row,Sequence,binding signal (normalized occupancy)
1,ACACTAAA,0.0738
2,GGTCCGAC,0.0692
3,AAGCCGTC,0.0663
4,GTCACCCA,0.0789
5,ATGGGCCA,0.0769
6,ATTAGAGC,0.0771
7,GACTGTAC,0.0779
8,TCACACAA,0.086
9,AGACTTAA,0.0708
10,ATGAGCAA,0.0818
11,ATAGTCCA,0.0796
12,ATCTTGGC,0.0713
13,CCGTCACC,0.0754
14,GGAACCAA,0.0722
15,ATAGGGCC,0.0745
16,ATCGTTCC,0.0771
17,CAGAGCTG,0.0692
18,CGTCGTAG,0.0711
19,TCCTCGAA,0.0669
20,ACTAACAT,0.0807
21,TACGCTCA,0.0746
22,CCGTCACA,0.0754
23,CTCGCAGC,0.0662
24,CTGTACCC,0.0765
25,CCCACGCA,0.0903

row,Sequence,binding signal (normalized occupancy)
1,GCGAGAGA,0.0775
2,ACCGACAG,0.0652
3,ACAGTTTG,0.0739
4,AGGCCGCC,0.0676
5,ACCTGGTG,0.0804
6,CGCATTAG,0.0758
7,GACCACCA,0.0803
8,AAGCGTAG,0.0679
9,GTGACAAC,0.0813
10,CCTTCTGC,0.0729
11,GATGACCA,0.0763
12,CGGGACGC,0.0716
13,ACGGGAAA,0.0708
14,ATATCTAG,0.0761
15,AAAGCCCA,0.0724
16,ATTCACGG,0.0721
17,GTGGCGGA,0.0754
18,ATAGGAAT,0.079
19,CGATTTGC,0.0663
20,AAGAGCAA,0.0747
21,ACAACGGT,0.0733
22,CGACCGAA,0.0668
23,ATAGTAAC,0.0803
24,GGGAAAGA,0.0722
25,ACCCGCGG,0.0753

row,Sequence,binding signal (normalized occupancy)
1,GCGGACCA,0.0739
2,CGGATTTC,0.0673
3,CCACAACA,0.0784
4,AACTAGAA,0.0733
5,AGATCTCA,0.0781
6,GGGCTCAA,0.0662
7,ATTCTGAC,0.0729
8,TAATTTGA,0.0725
9,ACCTCATG,0.113
10,AGAGTTCA,0.072
11,CTTCGAGC,0.0654
12,CTGCTGTA,0.0714
13,TACACAGA,0.0759
14,CCCACAGA,0.0807
15,AGGTAAAT,0.0799
16,CGCATCCG,0.0736
17,CCGTCCTA,0.0728
18,CGACGAAA,0.0706
19,CCTCGCTC,0.072
20,AAAGTGGA,0.0743
21,ACAGAGAC,0.0758
22,ATGAACAG,0.0797
23,ACGGAGTC,0.0685
24,GTGATACA,0.0838
25,CACTTCTC,0.074

row,Sequence,binding signal (normalized occupancy)
1,GCTTAACA,0.0798
2,CGGCCTAC,0.0723
3,CATACATC,0.0856
4,AACAATCA,0.0758
5,CAAGAATG,0.0745
6,AGCCGAAG,0.0697
7,AAGGGGTA,0.0794
8,ACACCTTA,0.0753
9,GCACGATA,0.0812
10,ATCCCGTC,0.0762
11,AGAGTCGC,0.0764
12,ACTTAGGA,0.072
13,ATAGACCA,0.0742
14,CAACGCAA,0.0717
15,CCCTAAAC,0.0722
16,ACTGATAC,0.0881
17,CACGTCCC,0.081
18,CGTATATC,0.0793
19,ATGGCCGG,0.0713
20,GCATGCGC,0.121
21,CTTCGCAC,0.0771
22,CACATACG,0.0784
23,ACGCGCCG,0.072
24,TCCTTCAA,0.0731
25,ACCGATCA,0.0748

row,Sequence,binding signal (normalized occupancy)
1,GGGGATTA,0.0801
2,GGCTTGGA,0.0761
3,CCAGCTCC,0.0698
4,AACCACAC,0.0854
5,ATTATTCG,0.0765
6,AATAGGAA,0.0757
7,AAGCCAGG,0.0707
8,AGAAACTG,0.0741
9,AACCCGGT,0.0737
10,ATCAAGTA,0.0786
11,ACTAGTTG,0.0718
12,CCCTCCGA,0.069
13,CTTTAGAC,0.0732
14,AAGTCAGA,0.0709
15,AATTGTAC,0.0791
16,AACATGGA,0.0836
17,ATAGCCGA,0.074
18,GTAATAAA,0.076
19,TACGTGAA,0.0794
20,CTCTCGAA,0.0729
21,AGCCTGGA,0.0697
22,CATAGTCG,0.0739
23,AAGGGGCC,0.0717
24,GACTCAAA,0.0733
25,CGTTCCTA,0.0763

row,Sequence,binding signal (normalized occupancy)
1,AGGAGGAA,0.0737
2,GTTCGAAC,0.0648
3,AGACCACC,0.0819
4,GCTGTTAC,0.0743
5,AACCATCT,0.0762
6,CGCACTCA,0.0765
7,CCTGGTAG,0.0693
8,ACCCCAGT,0.0784
9,CTGGCAAA,0.0693
10,CACTCGCA,0.0727
11,GACTATGA,0.0779
12,GCCGGTCC,0.0685
13,ATAACTCC,0.0792
14,GACCTTCA,0.0715
15,ATTGCTTA,0.0771
16,AGTTTGTA,0.0756
17,AGGGACAT,0.0787
18,AGGTCGCC,0.0768
19,GCAACGGA,0.0695
20,GATGTCAC,0.0839
21,GTCAACAA,0.0764
22,GGTTGAAA,0.0729
23,AGGATTAT,0.079
24,CTGGCTGC,0.0736
25,CAGTGTAC,0.0781

row,Sequence,binding signal (normalized occupancy)
1,GAACAACC,0.0784
2,AGGTGTTA,0.0801
3,CATCAACG,0.0728
4,ACTTGTCA,0.0792
5,ACTTGAAG,0.0774
6,TATTTAAA,0.0789
7,CCGGAACA,0.0684
8,TAGTCCGA,0.0692
9,TAAGTAAA,0.0749
10,TACCGTGA,0.0755
11,CTCCCGAA,0.0776
12,CCGTTCAC,0.0771
13,AGACTACT,0.0721
14,CTGTGTTA,0.079
15,CCGTACGG,0.0696
16,ATAGGTCC,0.0741
17,CAAAAAGC,0.0682
18,ACTAGTCG,0.0757
19,AAGGCCAC,0.0803
